Results taken from the supplement of paper PMC4604168 (melanoma cell lines).
This is one part of the list. Many values rest on one well or one pass, so single values are uncertain.

Experiments:
Assay in all cases: cell count relative to DMSO control; melanoma cells; higher = more viable cells
Conditions in all cases: library dose: low library concentration; 72 h
[1] = system: COLO792
[2] = system: COLO800
[3] = system: COLO829
[4] = system: G361
[5] = system: IPC-298
[6] = system: IST-MEL1
[7] = system: LB2518-MEL
[8] = system: LOXIMVI
[9] = system: MEL-HO
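Also: cell number obtained by counting DAPI-stained nuclei in high-throughput microscope images with image analysis software, screen run in 1,536-well plates.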

CNC(=O)c1cc(Oc2ccc(NC(=O)Nc3ccc(Cl)c(C(F)(F)F)c3)cc2)ccn1 [sorafenib] + Cc1cc([N+](=O)[O-])ccc1NS(=O)(=O)c1cc(Cl)ccc1Cl [FH535] (first compound 0.4 µM, partner dose 1 µM)
cell count [1]: 115% | cell count [2]: 119% | cell count [3]: 106% | cell count [4]: 88.5% | cell count [5]: 83.3% | cell count [6]: 83.5% | cell count [7]: 112% | cell count [8]: 96.8% | cell count [9]: 96.6%

CS(=O)(=O)CCNCc1ccc(-c2ccc3ncnc(Nc4ccc(OCc5cccc(F)c5)c(Cl)c4)c3c2)o1 [lapatinib] + O=C(O)c1ccc(-c2c[nH]c3ncc(-c4ccccc4)cc23)cc1C1CCCC1 [GSK650394] (first compound 0.8 µM, partner dose 0.16 µM)
cell count [1]: 73.8% | cell count [2]: 114% | cell count [3]: 106% | cell count [4]: 95.5% | cell count [5]: 96.6% | cell count [6]: 109% | cell count [7]: 108% | cell count [8]: 61.4% | cell count [9]: 91.5%

CN1CCN(c2ccc3nc(-c4c(N)c5c(F)cccc5[nH]c4=O)[nH]c3c2)CC1 [Dovitinib] + Cc1cc([N+](=O)[O-])ccc1NS(=O)(=O)c1cc(Cl)ccc1Cl [FH535] (first compound 0.1 µM, partner dose 1 µM)
cell count [1]: 84.4% | cell count [2]: 73.9% | cell count [3]: 95.6% | cell count [4]: 95.5% | cell count [5]: 92.8% | cell count [6]: 81.2% | cell count [7]: 85% | cell count [8]: 121% | cell count [9]: 91.8%

C=CCNC1=C2C[C@@H](C)C[C@H](OC)[C@H](O)[C@@H](C)/C=C(\C)[C@H](OC(N)=O)[C@@H](OC)/C=C\C=C(/C)C(=O)NC(=CC1=O)C2=O [Tanespimycin] + c1cc(-c2cnn3cc(-c4ccc(OCCN5CCCCC5)cc4)cnc23)ccn1 [Dorsomorphin] (first compound 0.002 µM, partner dose 0.4 µM)
cell count [1]: 93.7% | cell count [2]: 140% | cell count [3]: 93.1% | cell count [4]: 96.3% | cell count [5]: 99.9% | cell count [6]: 92.8% | cell count [7]: 109% | cell count [8]: 56.9% | cell count [9]: 95.9%

C[C@@H](Oc1cc(-c2cnn(C3CCNCC3)c2)cnc1N)c1c(Cl)ccc(F)c1Cl [Crizotinib] + COc1ccc2c(c1)CCC1C2CCC2(C)C(NCCCCCCN3C(=O)C=CC3=O)CCC12 [U73122] (first compound 0.2 µM, partner dose 0.4 µM)
cell count [1]: 106% | cell count [2]: 46.3% | cell count [3]: 110% | cell count [4]: 101% | cell count [5]: 97.4% | cell count [6]: 99% | cell count [7]: 95.6% | cell count [8]: 99.6% | cell count [9]: 78.2%

C=CCNC1=C2C[C@@H](C)C[C@H](OC)[C@H](O)[C@@H](C)/C=C(\C)[C@H](OC(N)=O)[C@@H](OC)/C=C\C=C(/C)C(=O)NC(=CC1=O)C2=O [Tanespimycin] + CO[C@@H]1[C@H](N(C)C(=O)c2ccccc2)C[C@H]2O[C@]1(C)n1c3ccccc3c3c4c(c5c6ccccc6n2c5c31)C(=O)NC4 [Midostaurin] (first compound 0.002 µM, partner dose 0.08 µM)
cell count [1]: 101% | cell count [2]: 127% | cell count [3]: 85.7% | cell count [4]: 93.2% | cell count [5]: 97.3% | cell count [6]: 92.9% | cell count [7]: 101% | cell count [8]: 109% | cell count [9]: 88.9%

C[C@@H](Oc1cc(-c2cnn(C3CCNCC3)c2)cnc1N)c1c(Cl)ccc(F)c1Cl [Crizotinib] + COc1ccc(-c2ccc3c(N4CCOCC4)nc(N4C[C@@H](C)O[C@@H](C)C4)nc3n2)cc1CO [KU0063794] (first compound 0.2 µM, partner dose 0.02 µM)
cell count [1]: 92% | cell count [2]: 108% | cell count [3]: 102% | cell count [4]: 106% | cell count [5]: 90.4% | cell count [6]: 104% | cell count [7]: 101% | cell count [8]: 140% | cell count [9]: 90.8%

C[C@@H](Oc1cc(-c2cnn(C3CCNCC3)c2)cnc1N)c1c(Cl)ccc(F)c1Cl [Crizotinib] + Cn1cncc1[C@@](N)(c1ccc(Cl)cc1)c1ccc2c(c1)c(-c1cccc(Cl)c1)cc(=O)n2C [tipifarnib] (first compound 0.2 µM, partner dose 0.01 µM)
cell count [1]: 96.6% | cell count [2]: 89.9% | cell count [3]: 90.6% | cell count [4]: 88.2% | cell count [5]: 88.3% | cell count [6]: 90.4% | cell count [7]: 71.3% | cell count [8]: 97.6% | cell count [9]: 92.1%

C[C@@H](Oc1cc(-c2cnn(C3CCNCC3)c2)cnc1N)c1c(Cl)ccc(F)c1Cl [Crizotinib] + O=C(CCCCCCC(=O)Nc1ccccc1)NO [vorinostat] (first compound 0.2 µM, partner dose 0.08 µM)
cell count [1]: 103% | cell count [2]: 126% | cell count [3]: 95.7% | cell count [4]: 92.7% | cell count [5]: 100% | cell count [6]: 101% | cell count [7]: 92% | cell count [8]: 138% | cell count [9]: 93.9%

C[C@@H](Oc1cc(-c2cnn(C3CCNCC3)c2)cnc1N)c1c(Cl)ccc(F)c1Cl [Crizotinib] + NC(=O)Nc1cc(-c2cccc(F)c2)sc1C(=O)N[C@H]1CCCNC1 [AZD7762] (first compound 0.2 µM, partner dose 0.02 µM)
cell count [1]: 97.2% | cell count [2]: 90.6% | cell count [3]: 99.2% | cell count [4]: 115% | cell count [5]: 98.3% | cell count [6]: 120% | cell count [7]: 125% | cell count [8]: 117% | cell count [9]: 97.8%

C[C@@H](Oc1cc(-c2cnn(C3CCNCC3)c2)cnc1N)c1c(Cl)ccc(F)c1Cl [Crizotinib] + c1cc(-c2cnn3cc(-c4ccc(OCCN5CCCCC5)cc4)cnc23)ccn1 [Dorsomorphin] (first compound 0.2 µM, partner dose 0.4 µM)
cell count [1]: 83% | cell count [2]: 76.7% | cell count [3]: 100% | cell count [4]: 93.1% | cell count [5]: 98.2% | cell count [6]: 96% | cell count [7]: 96% | cell count [8]: 74.6% | cell count [9]: 92.3%

CNC(=O)c1cc(Oc2ccc(NC(=O)Nc3ccc(Cl)c(C(F)(F)F)c3)cc2)ccn1 [sorafenib] + Cn1cc(/C=C2\C(=O)Nc3cccnc32)c2ccccc21 [GW441756] (first compound 0.4 µM, partner dose 0.4 µM)
cell count [1]: 108% | cell count [2]: 238% | cell count [3]: 109% | cell count [4]: 128% | cell count [5]: 96% | cell count [6]: 99.4% | cell count [7]: 111% | cell count [8]: 83.6% | cell count [9]: 109%

C[C@@H](Oc1cc(-c2cnn(C3CCNCC3)c2)cnc1N)c1c(Cl)ccc(F)c1Cl [Crizotinib] + CO[C@@H]1[C@H](N(C)C(=O)c2ccccc2)C[C@H]2O[C@]1(C)n1c3ccccc3c3c4c(c5c6ccccc6n2c5c31)C(=O)NC4 [Midostaurin] (first compound 0.2 µM, partner dose 0.08 µM)
cell count [1]: 95% | cell count [2]: 91.3% | cell count [3]: 87.5% | cell count [4]: 82.3% | cell count [5]: 97.3% | cell count [6]: 94.1% | cell count [7]: 89.7% | cell count [8]: 64.5% | cell count [9]: 91%

CS(=O)(=O)CCNCc1ccc(-c2ccc3ncnc(Nc4ccc(OCc5cccc(F)c5)c(Cl)c4)c3c2)o1 [lapatinib] + Oc1nc(-c2ccc(C(F)(F)F)cc2)nc2c1CSCC2 [XAV939] (first compound 0.8 µM, partner dose 2 µM)
cell count [1]: 77% | cell count [2]: 79.2% | cell count [3]: 120% | cell count [4]: 95% | cell count [5]: 96.1% | cell count [6]: 94.1% | cell count [7]: 115% | cell count [8]: 82.3% | cell count [9]: 104%

CN1CCN(c2ccc3nc(-c4c(N)c5c(F)cccc5[nH]c4=O)[nH]c3c2)CC1 [Dovitinib] + O=C(O)c1ccc(-c2c[nH]c3ncc(-c4ccccc4)cc23)cc1C1CCCC1 [GSK650394] (first compound 0.1 µM, partner dose 0.16 µM)
cell count [1]: 86.5% | cell count [2]: 94.1% | cell count [3]: 90.5% | cell count [4]: 92.8% | cell count [5]: 91.6% | cell count [6]: 89.3% | cell count [7]: 92.3% | cell count [8]: 110% | cell count [9]: 89.1%

C=CCNC1=C2C[C@@H](C)C[C@H](OC)[C@H](O)[C@@H](C)/C=C(\C)[C@H](OC(N)=O)[C@@H](OC)/C=C\C=C(/C)C(=O)NC(=CC1=O)C2=O [Tanespimycin] + O=C(Nc1cccc(Cl)c1)Nc1ncc(CCNc2ncnc3ccsc23)s1 [SNS314] (first compound 0.002 µM, partner dose 0.0008 µM)
cell count [1]: 106% | cell count [2]: 66.1% | cell count [3]: 69% | cell count [4]: 96.2% | cell count [5]: 101% | cell count [6]: 100% | cell count [8]: 98.7% | cell count [9]: 100%

CN1CCN(c2ccc3nc(-c4c(N)c5c(F)cccc5[nH]c4=O)[nH]c3c2)CC1 [Dovitinib] + O=c1cc(-c2cccc3c2Sc2ccccc2S3)oc(N2CCOCC2)c1 [KU55933] (first compound 0.1 µM, partner dose 1 µM)
cell count [1]: 112% | cell count [2]: 90% | cell count [3]: 107% | cell count [4]: 101% | cell count [5]: 100% | cell count [6]: 104% | cell count [7]: 95.8% | cell count [8]: 152% | cell count [9]: 103%

CNC(=O)c1cc(Oc2ccc(NC(=O)Nc3ccc(Cl)c(C(F)(F)F)c3)cc2)ccn1 [sorafenib] + CCCCCCCCCCCC1=C(O)C(=O)C=C(O)C1=O [Embelin] (first compound 0.4 µM, partner dose 1.2 µM)
cell count [1]: 118% | cell count [2]: 138% | cell count [3]: 129% | cell count [4]: 101% | cell count [5]: 102% | cell count [6]: 105% | cell count [7]: 137% | cell count [8]: 137% | cell count [9]: 91%

C=CCNC1=C2C[C@@H](C)C[C@H](OC)[C@H](O)[C@@H](C)/C=C(\C)[C@H](OC(N)=O)[C@@H](OC)/C=C\C=C(/C)C(=O)NC(=CC1=O)C2=O [Tanespimycin] + O=C1NC(=O)/C(=C/c2ccc(-c3ccc(F)cc3O)o2)S1 [AS252424] (first compound 0.002 µM, partner dose 1 µM)
cell count [1]: 102% | cell count [2]: 89.1% | cell count [3]: 94.5% | cell count [4]: 91.8% | cell count [5]: 101% | cell count [6]: 113% | cell count [7]: 98.7% | cell count [8]: 114% | cell count [9]: 97.8%

C[C@@H](Oc1cc(-c2cnn(C3CCNCC3)c2)cnc1N)c1c(Cl)ccc(F)c1Cl [Crizotinib] + COc1cc(Nc2ncc(F)c(Nc3ccc4c(n3)NC(=O)C(C)(C)O4)n2)cc(OC)c1OC [Tamatinib] (first compound 0.2 µM, partner dose 0.4 µM)
cell count [1]: 56.4% | cell count [2]: 114% | cell count [3]: 83.2% | cell count [4]: 94.7% | cell count [5]: 72.6% | cell count [6]: 93.7% | cell count [8]: 105% | cell count [9]: 94.2%

CN1CCN(c2ccc3nc(-c4c(N)c5c(F)cccc5[nH]c4=O)[nH]c3c2)CC1 [Dovitinib] + CCc1ccc(CCOc2ccc(CC3SC(=O)NC3=O)cc2)nc1 [pioglitazone] (first compound 0.1 µM, partner dose 2 µM)
cell count [1]: 100% | cell count [2]: 77.1% | cell count [3]: 106% | cell count [4]: 112% | cell count [5]: 95.1% | cell count [6]: 99.7% | cell count [7]: 84.3% | cell count [8]: 129% | cell count [9]: 96.5%
